Laboratory results: the supplement of paper PMC7238544
Counter-ions that a name gives are not always drawn. ± gives the standard deviation of the averaged measurements. The list shows a part of the results.

Legend:
Conditions in all cases: priming compound concentration 100 µM
[1] = test system: hAMSC donor 1; assay: Hoechst total cell count ratio vs vehicle control; higher = more cells (less toxicity)
[2] = test system: hAMSC donor 2; assay: as above
[3] = test system: hAMSC donor 1; assay: transgenic luciferase activity (RLU/mg protein) fold change vs vehicle control (ratio); higher = more transgene expression
[4] = test system: hAMSC donor 2; assay: as above
[5] = test system: hAMSC donor 1; assay: transfection efficiency (EGFP+ cells / Hoechst count) fold change vs vehicle control (ratio); hAMSC are human adipose-derived mesenchymal stem cells given an EGFP-luciferase plasmid by lipofection; higher = enhanced transfection
[6] = test system: hAMSC donor 2; assay: as above
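Throughout, for Hoechst total cell count ratio vs vehicle control: compound added 30 min before Lipofectamine 3000 lipoplex delivery, triplicate-well means expressed against DMSO vehicle control wells of the same 96-well plate.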
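Throughout, for transfection efficiency (EGFP+ cells / Hoechst count) fold change vs vehicle control: compounds added 30 min before Lipofectamine 3000 lipoplex transfection, triplicate means relative to DMSO vehicle wells on the same plate, luciferase RLU normalized to BCA total protein.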
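Throughout, for transgenic luciferase activity (RLU/mg protein) fold change vs vehicle control: compounds in DMSO added 30 min before Lipofectamine 3000 transfection of pEGFP-Luc in 96-well plates, values are means of triplicate wells over DMSO vehicle wells on the same plate.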

In the case of COc1ccc(-c2oc3c(CC=C(C)C)c(O[C@@H]4O[C@H](CO)[C@@H](O)[C@H](O)[C@H]4O)cc(O)c3c(=O)c2O[C@@H]2O[C@@H](C)[C@H](O)[C@@H](O)[C@H]2O)cc1 [Icariin], the “Hoechst total cell count ratio” value [1] is reported as 1.48 ± 0.15, the “Hoechst total cell count ratio” value [2] is reported as 0.96 ± 0.55 and the transgenic luciferase activity [3] is reported as 0.64 ± 0.34. For the same compound, the transgenic luciferase activity [4] was 1.31 ± 0.1, the transfection efficiency [5] was 0.792 ± 0.29 and the transfection efficiency [6] was 1.45 ± 0.39.
S=c1[nH]cnc2nc[nH]c12 [Mercaptopurine] was tested, and the “Hoechst total cell count ratio” value [1] was 1.08 ± 0.19, the “Hoechst total cell count ratio” value [2] was 1.55 ± 0.16 and the transgenic luciferase activity [3] was 0.692 ± 0.44. The transgenic luciferase activity [4] was 0.39 ± 0.11, the transfection efficiency [5] was 0.966 ± 0.22 and the transfection efficiency [6] was 1.12 ± 0.19.
In the case of CN(C)CCCN1c2ccccc2CCc2ccc(Cl)cc21 [Clomipramine hydrochloride], the “Hoechst total cell count ratio” value [1] is reported as 0.217 ± 0.087, the “Hoechst total cell count ratio” value [2] is reported as 0.0403 ± 0.041 and the transgenic luciferase activity [3] is reported as 0.000622 ± 0.00047. For the same compound, the transgenic luciferase activity [4] was 0.008 ± 0.0095, the transfection efficiency [5] was 0.225 ± 0.11 and the transfection efficiency [6] was 0.384 ± 0.67.
With COc1cc(C[C@@H](CO)[C@H](CO)Cc2ccc(O)c(OC)c2)ccc1O [Secoisolariciresinol] the “Hoechst total cell count ratio” value [1] was 1.52 ± 0.24, the “Hoechst total cell count ratio” value [2] was 0.738 ± 0.11 and the transgenic luciferase activity [3] was 0.411 ± 0.13. For the same compound, the transgenic luciferase activity [4] was 0.375 ± 0.1, the transfection efficiency [5] was 1.1 ± 0.08 and the transfection efficiency [6] was 1.06 ± 0.032.
For CN1[C@@H]2CC[C@H]1C[C@@H](OC(c1ccccc1)c1ccccc1)C2 [Benztropine mesylate], the “Hoechst total cell count ratio” value [1] was 0.951 ± 0.057, the “Hoechst total cell count ratio” value [2] was 0.615 ± 0.41 and the transgenic luciferase activity [3] was 0.767 ± 0.33. The transgenic luciferase activity [4] was 0.219 ± 0.11, the transfection efficiency [5] was 0.997 ± 0.21 and the transfection efficiency [6] was 0.992 ± 0.23.
With CCCCC(=O)O[C@H]1CC[C@H]2[C@@H]3CCc4cc(O)ccc4[C@H]3CC[C@]12C [Estradiol valerate] the “Hoechst total cell count ratio” value [1] was 0.488 ± 0.31, the “Hoechst total cell count ratio” value [2] was 0.0597 ± 0.011 and the transgenic luciferase activity [3] was 0.00301 ± 0.0021. It also gave a transgenic luciferase activity [4] of 0.000577 ± 0.00061, a transfection efficiency [5] of 0.123 ± 0.099 and a transfection efficiency [6] of 0.22 ± 0.2.
CN(C/C=C/C#CC(C)(C)C)Cc1cccc2ccccc12 [Terbinafine hydrochloride] was tested, and the “Hoechst total cell count ratio” value [1] was 1.24 ± 0.22, the “Hoechst total cell count ratio” value [2] was 0.819 ± 0.082 and the transgenic luciferase activity [3] was 0.481 ± 0.15. For the same compound, the transgenic luciferase activity [4] was 0.4 ± 0.021, the transfection efficiency [5] was 0.535 ± 0.16 and the transfection efficiency [6] was 0.734 ± 0.035.
For C=C1/C(=C\C=C2/CCC[C@]3(C)[C@@H]([C@H](C)CCCC(C)(C)O)CC[C@@H]23)C[C@@H](O)C[C@@H]1O [Calcitriol], the “Hoechst total cell count ratio” value [1] was 0.734 ± 0.081, the “Hoechst total cell count ratio” value [2] was 0.742 ± 0.1 and the transgenic luciferase activity [3] was 0.575 ± 0.24. It also gave a transgenic luciferase activity [4] of 2.03 ± 0.42, a transfection efficiency [5] of 0.884 ± 0.28 and a transfection efficiency [6] of 0.994 ± 0.16.
For COc1c(N2C[C@@H]3CCCN[C@@H]3C2)c(F)cc2c(=O)c(C(=O)O)cn(C3CC3)c12 [Moxifloxacin hydrochloride], the “Hoechst total cell count ratio” value [1] was 2.26 ± 0.028, the “Hoechst total cell count ratio” value [2] was 0.992 ± 0.11 and the transgenic luciferase activity [3] was 0.892 ± 0.61. The transgenic luciferase activity [4] was 1.46 ± 0.16, the transfection efficiency [5] was 0.565 ± 0.12 and the transfection efficiency [6] was 0.802 ± 0.029.
In the case of CCCNCC(O)COc1ccccc1C(=O)CCc1ccccc1 (centres undefined) [Propafenone], the “Hoechst total cell count ratio” value [1] is reported as 0.988 ± 0.15, the “Hoechst total cell count ratio” value [2] is reported as 0.541 ± 0.049 and the transgenic luciferase activity [3] is reported as 0.287 ± 0.015. For the same compound, the transgenic luciferase activity [4] was 0.965 ± 0.18, the transfection efficiency [5] was 0.445 ± 0.13 and the transfection efficiency [6] was 0.894 ± 0.11.
With CN1CCc2cc(Cl)c(O)cc2[C@@H](c2ccccc2)C1 the “Hoechst total cell count ratio” value [1] was 1.42 ± 0.2, the “Hoechst total cell count ratio” value [2] was 1.17 ± 0.21 and the transgenic luciferase activity [3] was 1.52 ± 0.77. For the same compound, the transgenic luciferase activity [4] was 0.7 ± 0.18, the transfection efficiency [5] was 1.01 ± 0.19 and the transfection efficiency [6] was 0.636 ± 0.1.
In the case of C[C@H]1COc2c(C3(N)CC3)c(F)cc3c(=O)c(C(=O)O)cn1c23 [Pazufloxacin], the “Hoechst total cell count ratio” value [1] is reported as 1.34 ± 0.28, the “Hoechst total cell count ratio” value [2] is reported as 1.1 ± 0.1 and the transgenic luciferase activity [3] is reported as 0.745 ± 0.48. The transgenic luciferase activity [4] was 0.75 ± 0.036, the transfection efficiency [5] was 1.09 ± 0.23 and the transfection efficiency [6] was 1.18 ± 0.33.
In the case of CNCC[C@@H](Oc1ccccc1C)c1ccccc1 [Atomoxetine hydrochloride], the “Hoechst total cell count ratio” value [1] is reported as 1.09 ± 0.12, the “Hoechst total cell count ratio” value [2] is reported as 0.88 ± 0.068 and the transgenic luciferase activity [3] is reported as 1.58 ± 1.5. It also gave a transgenic luciferase activity [4] of 0.82 ± 0.13, a transfection efficiency [5] of 1.33 ± 0.19 and a transfection efficiency [6] of 1.25 ± 0.15.
CC[C@H](C)C(=O)O[C@H]1C[C@H](O)C=C2C=C[C@H](C)[C@H](CC[C@@H](O)C[C@@H](O)CC(=O)O)[C@H]21 [Pravastatin sodium] was tested, and the “Hoechst total cell count ratio” value [1] was 1.1 ± 0.08, the “Hoechst total cell count ratio” value [2] was 1.12 ± 0.23 and the transgenic luciferase activity [3] was 0.772 ± 0.059. The transgenic luciferase activity [4] was 0.845 ± 0.2, the transfection efficiency [5] was 0.785 ± 0.052 and the transfection efficiency [6] was 1.24 ± 0.14.
For O=C(O[C@H]1[C@H](Oc2ccccc2COC(=O)C2(O)C=CCCC2=O)O[C@H](CO)[C@@H](O)[C@@H]1O)c1ccccc1 (some centres undefined) [Tremulacin], the “Hoechst total cell count ratio” value [1] was 1.4 ± 0.11, the “Hoechst total cell count ratio” value [2] was 1.23 ± 0.2 and the transgenic luciferase activity [3] was 0.423 ± 0.15. For the same compound, the transgenic luciferase activity [4] was 0.731 ± 0.15, the transfection efficiency [5] was 0.861 ± 0.15 and the transfection efficiency [6] was 0.442 ± 0.14.
With Clc1ccccc1CN1CCc2sccc2C1 [Ticlopidine hydrochloride] the “Hoechst total cell count ratio” value [1] was 1.7 ± 0.41, the “Hoechst total cell count ratio” value [2] was 1.11 ± 0.062 and the transgenic luciferase activity [3] was 0.723 ± 0.14. For the same compound, the transgenic luciferase activity [4] was 0.44 ± 0.052, the transfection efficiency [5] was 1.2 ± 0.25 and the transfection efficiency [6] was 0.734 ± 0.025.
With C[C@@H]1C[C@H]2[C@@H]3CCC4=CC(=O)C=C[C@]4(C)[C@@]3(F)[C@@H](O)C[C@]2(C)[C@@]1(O)C(=O)CO [Dexamethasone] the “Hoechst total cell count ratio” value [1] was 1.36 ± 0.3, the “Hoechst total cell count ratio” value [2] was 1.31 ± 0.077 and the transgenic luciferase activity [3] was 28.2 ± 3.1. The transgenic luciferase activity [4] was 5.58 ± 1, the transfection efficiency [5] was 2.06 ± 0.33 and the transfection efficiency [6] was 1.93 ± 0.29.
CCN(CC)CCNC(=O)c1ccc(N)cc1 [Procainamide hydrochloride] was tested, and the “Hoechst total cell count ratio” value [1] was 2.1 ± 0.1, the “Hoechst total cell count ratio” value [2] was 1.38 ± 0.23 and the transgenic luciferase activity [3] was 2.48 ± 1. The transgenic luciferase activity [4] was 0.389 ± 0.094, the transfection efficiency [5] was 1.63 ± 0.11 and the transfection efficiency [6] was 1.24 ± 0.14.
With COC(=O)C1=C(C)NC(C)=C(C(=O)OCCN(C)Cc2ccccc2)C1c1cccc([N+](=O)[O-])c1 (centres undefined) [Nicardipine hydrochloride] the “Hoechst total cell count ratio” value [1] was 0.483 ± 0.057, the “Hoechst total cell count ratio” value [2] was 0.535 ± 0.09 and the transgenic luciferase activity [3] was 0.686 ± 0.34. It also gave a transgenic luciferase activity [4] of 0.401 ± 0.04, a transfection efficiency [5] of 0.557 ± 0.12 and a transfection efficiency [6] of 0.536 ± 0.1.
With O=c1[nH]c(=O)n(C2CCCO2)cc1F (centres undefined) [Tegafur] the “Hoechst total cell count ratio” value [1] was 1.4 ± 0.19, the “Hoechst total cell count ratio” value [2] was 1.33 ± 0.12 and the transgenic luciferase activity [3] was 1.1 ± 0.42. It also gave a transgenic luciferase activity [4] of 1.04 ± 0.14, a transfection efficiency [5] of 1.25 ± 0.033 and a transfection efficiency [6] of 0.895 ± 0.2.
With NCC(=O)CCC(=O)O [Aminolevulinic acid] the “Hoechst total cell count ratio” value [1] was 1.04 ± 0.22, the “Hoechst total cell count ratio” value [2] was 1.44 ± 0.17 and the transgenic luciferase activity [3] was 0.782 ± 0.024. For the same compound, the transgenic luciferase activity [4] was 0.63 ± 0.099, the transfection efficiency [5] was 0.911 ± 0.34 and the transfection efficiency [6] was 0.809 ± 0.14.
For OCCN1CCN(CCCN2c3ccccc3Sc3ccc(Cl)cc32)CC1 [Perphenazine], the “Hoechst total cell count ratio” value [1] was 0.124 ± 0.039, the “Hoechst total cell count ratio” value [2] was 0.305 ± 0.15 and the transgenic luciferase activity [3] was 0.00393 ± 0.0028. It also gave a transgenic luciferase activity [4] of 0.000664 ± 0.00015, a transfection efficiency [5] of 0.852 ± 0.47 and a transfection efficiency [6] of 0.0358 ± 0.062.
With CC(=O)Nc1ccc(CC(=O)O)cc1 [Actarit] the “Hoechst total cell count ratio” value [1] was 1.23 ± 0.092, the “Hoechst total cell count ratio” value [2] was 1.06 ± 0.13 and the transgenic luciferase activity [3] was 0.623 ± 0.55. The transgenic luciferase activity [4] was 0.921 ± 0.049, the transfection efficiency [5] was 0.999 ± 0.28 and the transfection efficiency [6] was 0.974 ± 0.16.
For C[C@H]1O[C@H](O[C@H]2[C@H](O)[C@@H](O)[C@@H](O[C@H]3[C@H](O)[C@@H](O)C(O)O[C@@H]3CO)O[C@@H]2CO)[C@H](O)[C@@H](O)[C@@H]1N[C@H]1C=C(CO)[C@@H](O)[C@H](O)[C@H]1O (some centres undefined) [Acarbose], the “Hoechst total cell count ratio” value [1] was 1.09 ± 0.026, the “Hoechst total cell count ratio” value [2] was 1.29 ± 0.22 and the transgenic luciferase activity [3] was 0.794 ± 0.18. It also gave a transgenic luciferase activity [4] of 0.763 ± 0.24, a transfection efficiency [5] of 1.15 ± 0.29 and a transfection efficiency [6] of 0.898 ± 0.14.
